From the supplement of paper PMC10126150
Sequences with one replicate were seen in a single cluster, so their values are uncertain.

Test system: ATP
Assay: switch fluorescence ratio, 500 uM ATP over buffer (Cy3 cluster intensity, sum of 5 cycles each) (fold (ratio)); higher = stronger signal-on switching upon ATP binding; sequences stand for … in TCGTCGGCAGCGTCAGATGTGTATAAGAGACAGTTTTTTTTTTTTTTTTTTTTTTTTT…TC
Settings: aptamer strand: ATP DNA aptamer (quencher-CACCTGGGGGAGTATTGCGGAGGAAGG + anchor), 100 nM annealed; ATP concentration: 500 uM; one replicate
Summary of the method: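 Cy3-labelled switching-strand clusters on a modified Illumina MiSeq flow-cell were annealed to 100 nM quencher-labelled ATP aptamer, imaged in selection buffer, then imaged after 15 min with 500 uM ATP at 22 °C. Five buffer/ATP cycles ran, with NaOH stripping and re-annealing between them. The fluorescence ratio is summed target-cycle over summed buffer-cycle Cy3 intensity per cluster, averaged per switch-domain sequence. Clusters outside 100-1000 RFU were excluded.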
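Also: ATP exposure 15 min at 22 °C before imaging.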

Sequence | switch fluorescence ratio
ACAGATAATT | 1
CCTTTTTAGG | 1
TTGTCCTCGG | 0.968
GCAACCACTC | 1.51
ATAAGGTCCG | 0.999
GTGGGTGTGC | 0.994
TGGACCGAAC | 1.56
GAGGCCGATC | 0.956
ATGGCGCTGT | 0.964
CATTATACTG | 0.987
GTATGACAAG | 1
CGCTGGCGGA | 1.05
ACTTGTTACT | 1.04
GTGTGGCCGT | 1.06
CGGGTATT | 0.985
TTGCTGGATA | 1
TCTGATAGAA | 1.02
AATCGTGGCT | 1.05
TATACTGTCG | 1.01
TGGAATCCGT | 0.974
CGGACCTGGA | 1.17
TGAAGAGAAA | 1.02
TGGCCGAGAG | 1.01
CCCTTTGATG | 0.998
GAGTATCGAA | 1.02
CGTAGCAGCA | 2.37

Sequence | switch fluorescence ratio
AGAATTAGAA | 0.967
TCGGTGGAG | 1.06
TGTATGACAC | 0.972
GGGCAAGAGA | 1.06
TTTTAACGCA | 1.11
TGACTGAAGT | 0.94
GGCGTAAGT | 0.978
TATAAGTGTA | 0.986
ATATCAGAG | 1.02
CAATGTAGA | 0.971
GAGATCATGG | 1.04
TCATTCTAT | 1.01
AGGAAGGCTA | 1.06
TATTATATAT | 1
GGTTTGCTT | 0.946
CCTTATAGGG | 1.15
AGTACCAGGG | 1.15
AGTGCAGAGT | 1
CGGGCCAGA | 0.987
GCCTAGTTTT | 1
GCGGAGAGCG | 0.992
ATTCGAATAC | 1.3
TCTCCAATA | 1.64
CGGCAACCAT | 1.05
AGGCACTAGC | 0.991
CAGTAGGTAC | 1.17

Sequence | switch fluorescence ratio
GCTTGGTAAC | 1.04
ACCGGCGGCC | 1.03
CATGGGTGGC | 0.948
GTGAAGTTGT | 0.933
CCCCGTGTCT | 1.16
TGTTACTCCA | 1.12
GTTTGGATTT | 0.99
TCGCTTCTTG | 0.984
ACCTAAGATT | 1.03
TTAAATGCAG | 1.03
GCGCCGTCAC | 1.07
GAAATAGTAG | 0.968
CCCGATGTCT | 0.971
AGTAGTTCGC | 0.982
GGCTGCCCTG | 1.01
TCTCCCGCT | 1.16
ACGGGCCGAA | 0.967
AAACTGACTA | 1.06
CAACGCAGAT | 2.39
GGAGCTGAAG | 1.03
GGAATACAAA | 0.979
AAACATTAGC | 0.999
GTTGGTAAAG | 0.968
TCGCATACCT | 2.49
CAGTTCTTTA | 1.01
TTACCAAATT | 1.12

Sequence | switch fluorescence ratio
GCGCAGTACA | 2.33
CGAGAAAGT | 0.988
GCAGTGGCCA | 1.02
GTTGTTAAGT | 1.01
ACTAGCGCGC | 1.02
AAACGCGTGG | 1
TGCTATGTAT | 0.984
AGGGCAAGGC | 1.12
TGTTGCTTCA | 1
ATGCGGAGCA | 1.03
CGTGAGACGC | 0.967
AAAAGAAGGC | 0.981
GAAGTAATGT | 0.986
TTCACAAATC | 1.06
AATGTCTTTA | 1.02
TGCTTGTGAG | 1.05
TTGTTGGTC | 0.929
ACTATGTGGG | 0.98
GCGCCAGGCT | 1.03
ATTTCGAGC | 1.03
GGGGCGCCTT | 1.01
TCGGACAAAT | 1.04
ATCATGCGC | 0.992
GACGTGCTGT | 0.993
AGGGTCTAGG | 0.965
AGATGGTATG | 0.941

Sequence | switch fluorescence ratio
CGCTGCAAGG | 2.1
ACCGCTATGA | 1.61
ATTGGAGCAC | 1.13
ATGACGTTAA | 1.06
GTGTTTGGAC | 1
TAGCGAATT | 0.949
CCTCGGTCAT | 3.93
TAGTCACGGG | 1.01
TCCGGGATAG | 4.59
CATTGAAGGA | 0.986
AATAGGCTTG | 1
TGTCAGGGAT | 1.01
CGCTCTGCT | 1.24
AACGGAAACT | 1.05
CGTGTAGGA | 1.05
GTTCAGTCCT | 1.04
TCCATTGTCA | 1
TACAATCAGG | 1.12
GATACCTATA | 1
TCTGAGGCTA | 1.87
CCACTAACCA | 1.13
GATTCGG | 1
GGGAGTTCTG | 0.997
GTCGAGAGCG | 0.983
TGACGCTCTT | 0.987
GTCGACGGGT | 0.951

Sequence | switch fluorescence ratio
ATGAATAGTA | 0.976
ATCGCTTACT | 1.28
CCATAGGTGT | 2.39
GGGCGTTGCA | 1.01
TTGAAGGTTT | 1.34
GGCCACTGTT | 1.01
CTATTGGAGG | 0.992
TTAGGCGGC | 1
TACATCGACT | 0.975
ATCGCTTCTC | 1.1
GTTAGTCACG | 0.975
GGATGATAAG | 0.953
AGTCTCATCA | 0.985
GCAGCTTGAG | 1.08
CTCGGAAGGT | 1.04
CGCTGACGGG | 1.05
GGGTCAGCCA | 0.993
GAATTAATTA | 1.02
GACGTGGGAT | 1.08
TCCATTGCCA | 1.09
TCGTGTCTGC | 1.03
CGAATAAATT | 0.984
CTGTAATGCT | 1.96
CTCCCGTCGA | 1.58
TGTGTCGATA | 1
CTGGTATGCA | 1.01

Sequence | switch fluorescence ratio
ATAGGGGTGA | 0.984
AAACACCGGA | 1.06
GAAATCTTGT | 1.02
TTGGTCAAGA | 0.908
TTAGTTAGTC | 1.27
CTTACACAAC | 1.17
GTTCTATTAG | 0.997
AATCCTGAAC | 1.54
CTTAGTCTTA | 0.983
AATGTTAGCT | 1.02
CACATAATAA | 0.988
ACATAGTAAA | 1.04
AGCTCGTTGT | 0.966
GGGTATAATC | 0.96
GTGGTAGAT | 0.997
ATCAATGAAT | 0.947
TTAATCACAG | 0.984
GAAATAGGAG | 1.03
GATTGTGTTT | 1.06
ACTTTGTACT | 1.01
GGCATTTAAT | 0.987
CGTGCGGG | 1
CAGGTCTTCA | 0.985
CGGGTAGGC | 0.952
GGGCACGACG | 0.986
CCTGCCAAA | 2.19

Sequence | switch fluorescence ratio
ACTCTCAATA | 3.28
AAGAAGGAGT | 0.984
GCGTACCAAC | 1.1
GTCTACAGGT | 0.983
CTGCTATCC | 1.47
AGACAGTAAG | 0.993
CGTAGCACGG | 1.29
CGAAAATGTT | 1
GACACAACGA | 1.18
TTTAAGCGGG | 1.04
GCAATAGGT | 1.3
CGGGGAGGAT | 0.955
AGGGACACGG | 1.06
GTTTGAAAGC | 0.983
TTGTCTGGCG | 0.993
CACTAGGGTT | 1.15
ATGCCTTTCG | 1.01
TAGGTCGGGG | 0.97
CTTTTCCTTC | 1.78
